This note sets out measurements from the antibiotic and cytotoxicity screens of Wong et al. (2023).

Structures are written as SMILES. The list shows a part of the results.

Assay [1] relates to HSkMC (human skeletal muscle cells). Kind of assay: cytotoxicity call (relative viability < 0.9). The note with it: 10 µM.
The test system of assay [2] is HepG2. Kind of assay: cytotoxicity call (relative viability < 0.9). Particulars: 10 µM.
In assay [3] the test system is S. aureus RN4220. As to the kind of experiment: growth inhibition call (relative growth <= 0.2). The note with it: 50 µM.

Consider `COc1cccc(S(=O)(=O)N[C@@H]2C=C[C@@H](CC(=O)NC3CCC3)O[C@H]2CO)c1`, for which the cytotoxicity call in assay [1] and in assay [2] was “inactive” throughout. The growth inhibition call in assay [3] was “inactive”.
Take `C[C@@H]1CN([C@H](C)CO)C(=O)c2cc(NS(=O)(=O)c3cccs3)ccc2O[C@H]1CN(C)S(=O)(=O)c1ccccc1`: the cytotoxicity call in assay [1] and in assay [2] was “inactive” each time. In addition, in assay [3], the growth inhibition call is “inactive”.
Consider `C=CC[C@H](CC(=O)N(CCO)Cc1ccccc1)C(=O)N[C@H](COC(=O)[C@H](CC=C)CC(=O)OC(C)(C)C)Cc1c[nH]c2ccccc12`, for which the cytotoxicity call in assay [1] and in assay [2] was “inactive” in each case. The growth inhibition call in assay [3] is “inactive”.
As to `C[C@@H]1CN([C@H](C)CO)C(=O)c2cccc(NC(=O)CCCCCC(=O)Nc3ccccc3N)c2O[C@@H]1CN(C)S(=O)(=O)c1cn(C)cn1`, the cytotoxicity call in assay [1] and in assay [2] was “inactive” each time. In addition, the growth inhibition call in assay [3] was “inactive”.
Take `C[C@@H]1CN([C@@H](C)CO)S(=O)(=O)c2ccc(-c3cncnc3)cc2O[C@@H]1CN(C)C(=O)C1CCCCC1`: the cytotoxicity call in assay [1] and in assay [2] was “inactive” throughout. Also, the growth inhibition call in assay [3] is “inactive”.
As to `CCO[C@H]1OC(C(=O)N2CCN(Cc3ccccc3)CC2)=C[C@@H](c2cn(C(C)=O)c3ccccc23)[C@@H]1CCCOC(=O)NCCCCCC(=O)NO`, the cytotoxicity call in assay [1] and in assay [2] was “inactive” throughout. Moreover, in assay [3], the growth inhibition call is “inactive”.
In the case of `O=C(O)c1cncnc1N1CCCC1`, the cytotoxicity call in assay [1] and in assay [2] was “inactive” throughout. Also, the growth inhibition call in assay [3] is “inactive”.
As for `CCOC(=O)C(CCc1ccccc1)NC(C)C(=O)N(CC(=O)O)C1Cc2ccccc2C1.Cl` (centres undefined), the cytotoxicity call in assay [1] and in assay [2] was “inactive” in each case. For the same compound, the growth inhibition call in assay [3] was “inactive”.
In the case of `C[C@@H]1CCCCO[C@H](CN(C)C(=O)C2CCCCC2)[C@H](C)CN([C@@H](C)CO)C(=O)c2cc(NC(=O)Nc3ccc(C(F)(F)F)cc3)ccc2O1`, the cytotoxicity call in assay [1] and in assay [2] was “inactive” throughout. Besides, the growth inhibition call in assay [3] is “inactive”.
As for `O=C(O)c1ccc(O)c(O)c1O`, the cytotoxicity call in assay [1] and in assay [2] was “inactive” each time. For the same compound, in assay [3], the growth inhibition call was “inactive”.
Regarding `C[C@@H]1CN([C@H](C)CO)C(=O)c2cccc(NC(=O)Nc3cccc4ccccc34)c2O[C@@H]1CN(C)Cc1ccc(-c2ccccc2)cc1`, the cytotoxicity call in assay [1] and in assay [2] was “inactive” in each case. Also, in assay [3], the growth inhibition call was “inactive”.
Turning to `CCCCN(C/C=C/c1ccccc1OC)Cc1ccccc1`, the cytotoxicity call in assay [1] and in assay [2] was “inactive” in each case. The growth inhibition call in assay [3] was “inactive”.
In the case of `C[C@@H]1CN([C@@H](C)CO)C(=O)c2cc(NS(=O)(=O)c3ccccc3)ccc2O[C@@H]1CN(C)C(=O)Nc1cccc2ccccc12`, the cytotoxicity call in assay [1] and in assay [2] was “inactive” in each case. The growth inhibition call in assay [3] is “inactive”.
As for `Cl.NC(Cc1ccc(O)cc1)C(=O)O` (centres undefined), the cytotoxicity call in assay [1] and in assay [2] was “inactive” in each case. Besides, the growth inhibition call in assay [3] was “inactive”.
`Cc1ccc(S(=O)(=O)Nc2cccc3c2O[C@H](CN(C)C(=O)Nc2cccc4ccccc24)[C@@H](C)CN([C@@H](C)CO)C3=O)cc1`: the cytotoxicity call in assay [1] and in assay [2] was “active” in each case. The growth inhibition call in assay [3] is “inactive”.
On to `CCS(=O)(=O)NCC[C@@H]1CC[C@@H](NS(=O)(=O)c2cccc(F)c2)[C@H](CO)O1`, for which the cytotoxicity call in assay [1] and in assay [2] was “inactive” each time. For the same compound, the growth inhibition call in assay [3] is “inactive”.
On to `Cc1ccc(S(=O)(=O)Nc2ccc3c(c2)C(=O)N([C@H](C)CO)C[C@@H](C)[C@H](CN(C)C(=O)Cc2ccccc2)OCCCC[C@@H](C)O3)cc1`, for which the cytotoxicity call in assay [1] and in assay [2] was “inactive” each time. Besides, the growth inhibition call in assay [3] was “inactive”.
Consider `C[C@@H]1CCCCO[C@@H](CN(C)C(=O)Nc2ccc(F)cc2)[C@H](C)CN([C@@H](C)CO)C(=O)c2cc(NC(=O)c3ccncc3)ccc2O1`, for which the cytotoxicity call in assay [1] and in assay [2] was “inactive” in each case. Further, the growth inhibition call in assay [3] is “inactive”.
Turning to `COC(=O)c1c(C)cc(OC)cc1O`, the cytotoxicity call in assay [1] and in assay [2] was “inactive” throughout. Moreover, the growth inhibition call in assay [3] was “inactive”.
For the compound `C[C@@H]1CN([C@@H](C)CO)C(=O)c2cc(NC(=O)C3CCCCC3)ccc2O[C@@H](C)CCCCO[C@H]1CN(C)S(=O)(=O)c1ccc(Cl)cc1`, the cytotoxicity call in assay [1] and in assay [2] was “inactive” in each case. The growth inhibition call in assay [3] is “inactive”.
Regarding `C[C@@H]1CN([C@H](C)CO)C(=O)c2cc(NC(=O)Nc3ccc4c(c3)OCO4)ccc2O[C@@H](C)CCCCO[C@@H]1CN(C)Cc1ccc(Cl)c(Cl)c1`, the cytotoxicity call in assay [1] was “inactive”. Besides, the cytotoxicity call in assay [2] is “active”. Further, in assay [3], the growth inhibition call was “inactive”.
As for `CN1C(=O)c2cc(NC(=O)c3ccc(C(F)(F)F)cc3)ccc2OC[C@@H]2O[C@H](CC(=O)NC3Cc4ccccc4C3)CC[C@@H]21`, the cytotoxicity call in assay [1] and in assay [2] was “inactive” each time. In assay [3], the growth inhibition call was “inactive”.
On to `C[C@@H]1CCCCO[C@@H](CN(C)S(=O)(=O)c2cccs2)[C@H](C)CN([C@@H](C)CO)C(=O)c2cc(NC(=O)C3CCCCC3)ccc2O1`, for which the cytotoxicity call in assay [1] and in assay [2] was “inactive” in each case. Also, the growth inhibition call in assay [3] was “inactive”.
Turning to `COc1ccc(NC(=O)N(C)C[C@H]2Oc3ccc(NC(=O)CCN4CCOCC4)cc3CC(=O)N([C@@H](C)CO)C[C@@H]2C)cc1`, the cytotoxicity call in assay [1] and in assay [2] was “inactive” each time. The growth inhibition call in assay [3] was “inactive”.
With `C[C@@H]1CCCCO[C@@H](CN(C)S(=O)(=O)c2ccccc2)[C@@H](C)CN([C@@H](C)CO)C(=O)c2cc(NC(=O)NC3CCCCC3)ccc2O1`, the cytotoxicity call in assay [1] and in assay [2] was “inactive” each time. Besides, the growth inhibition call in assay [3] is “inactive”.
Regarding `COc1ccccc1C#Cc1ccc2c(c1)O[C@H](CN(C)Cc1cccnc1)[C@H](C)CN([C@@H](C)CO)S2(=O)=O`, the cytotoxicity call in assay [1] and in assay [2] was “inactive” in each case. The growth inhibition call in assay [3] was “inactive”.
`CN1C(=O)c2cc(NC(=O)Cc3cccs3)ccc2OC[C@H]2O[C@H](CC(=O)NCCc3ccncc3)CC[C@@H]21`: the cytotoxicity call in assay [1] and in assay [2] was “inactive” each time. The growth inhibition call in assay [3] was “inactive”.
Regarding `O=C(C[C@H]1C[C@@H]2c3cc(NC(=O)c4ccc5c(c4)OCO5)ccc3O[C@@H]2[C@@H](CO)O1)NCc1ccccn1`, the cytotoxicity call in assay [1] and in assay [2] was “inactive” in each case. In addition, the growth inhibition call in assay [3] was “inactive”.
